Test results from the supplement of paper PMC11417369.
± gives the standard deviation of the averaged measurements. Some of the results follow.

Tested on: PfAP2-I AP2 domain 3 (GST-tagged)
Test: gcPBM binding intensity (ln(normalized median fluorescence intensity)); higher = stronger DNA binding
Procedure, shortened: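 Binding intensity values are the highest Masliner-normalised natural-log median intensity among replicate spots of either probe orientation. The binding step lasted 1 h in 1× PBS with 1% milk, 0.2 mg/ml BSA, 0.5% salmon testes DNA and 0.03% Triton X-100, using GST-tagged P. falciparum DNA-binding domains expressed in E. coli on an Agilent 4 × 180k array of primer-extended double-stranded 36-bp intergenic genomic probes plus negative controls. Alexa488 anti-GST antibody and a 488 nm scan detected bound protein.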

Sequence	gcPBM binding intensity (ln)
TTTTTTTTTTTTTTGTGTACTAATATTATAAATTTT [XGTACX_site4405]	8.14 ± 0.3
TTTTGTTATTTTTCAGTGCAATATGATAATAATATA	10.5 ± 0.46
GAATCCTTAATATGAACACACAAATATATTACCCAT [CACACA_site186]	7.88 ± 0.56
TCTTTTTAACAAAAAAAAAAAAAAAAAAAAAAATTA [CACACA_negctrl_site1637]	7.37 ± 0.29
AGAATTTTATTATATTGTACTTTTTATAAACCTTGT [XGTACX_site7495]	7.7 ± 0.71
TGCTTATTTAGAATTGTGCACAGCGAATATTCTGTT	9.905 ± 0.049
TACATTTATACTACTGCATTCAAAAAAAATAAAAAA [TGCATGCA_negctrl_site157]	8.4 ± 0.11
TTTAATTTTTATATAACACACATATTGGAATTATGT [CACACA_site734]	7.68 ± 0.26
TTATGTATTACCTGCCGTACTTCTAAAATAATTAAA [XGTACX_site1716]	8.41 ± 0.86
TTAAATGTGAAGTGAATACACACCTAATAAATATAA [CACACA_site3194]	7.58 ± 0.52
ATATATTTACTTAATACACACAAAAAAAAAAAAAAA [CACACA_site3657]	8.1 ± 0.72
ATGTTGTACAGACACACACACAAAAAAAAAATAAAA [CACACA_site7184]	8.1 ± 0.13
ATATATATATATATATGTACATACATACAATCATAT [XGTACX_site6410]	9.38 ± 0.54
TATAAATTTTGTTTAGCACACACACCGACATACATA [CACACA_site9033]	8.46 ± 0.3
TATAATAGCTTCTTTACACACACCATTTTTTTTTTT [CACACA_site1456]	7.71 ± 0.58
CTTACATATTACATATGTACATATACACCTTATGTC [XGTACX_site4679]	7.99 ± 0.67
ATATATTTTTAATTTGCATGTAGTAAAGCCTTAAAT [TGCATGCA_site593]	7.78 ± 0.77
CATCAAGTGAATTGTTGTACTTTACATTGTTTTTAT [XGTACX_site7261]	7.89 ± 0.69
TGTTTTCTTGATTATTGTACTTTAATTAGTAATATG [XGTACX_site8674]	7.74 ± 0.38
TAAATACATTTATGTACACACACATAGATGTATATT [CACACA_site5618]	7.58 ± 0.33
TGAATATTCATGTGTGTGCGCATGTTGTTAGACCAT [GTGCAC_site9869]	8.52 ± 0.49
AAAAATATTATAAGCACACATATATATATATATATA [CACACA_site2458]	9.65 ± 0.49
TATAATATGTTATATACACACATTATAAAATACACA [CACACA_site6742]	7.76 ± 0.44

Sequence	gcPBM binding intensity (ln)
AAAAAAAAAATTAATTGTACTAAAAAAATATTATAT [XGTACX_site8903]	7.58 ± 0.52
TAATAATAAATAAAATGTACATATGAACAAATAAGT [XGTACX_site6710]	8.27 ± 0.54
ACTGTCATTTATTGTAGTACGTCAATTTATTACATT [XGTACX_site2749]	7.95 ± 0.54
TGTTACAAAAAATAATGTACTTAATATATATATATA [XGTACX_site1016]	9.11 ± 0.29
TATCTTCATTTTTTTGGTACGCACGCAAATATGGCT [XGTACX_site3107]	8.29 ± 0.49
TATATATTATAAAAGAGTACAGAAAGAAAAAAAAAT [XGTACX_site8305]	8.38 ± 0.64
AAACTTTTTTTAAAAACACACATATATATTTATATA [CACACA_site4092]	7.86 ± 0.49
ATATTCAATATATTATGTACACATATATGAGGATAT [XGTACX_site7019]	8.1 ± 0.39
GTTTAAAATCTTTGCACACATATAAATAAATATATT [CACACA_site2555]	9.18 ± 0.057
AGTATATTAATATAATGTACAAACGTTTATTTTGTA [XGTACX_site5980]	7.61 ± 0.6
AAATATCTACATATTTGTACATATTTATACATATTT [XGTACX_site6300]	7.42 ± 0.44
GAAAAGTAGACAATATGTACATATAGTATTTATAAA [XGTACX_site878]	7.8 ± 0.22
AGCAACCCCCTAGCTACACACATATAGATATAAATA [CACACA_site6577]	9.02 ± 0.34
ATCATGTTATATATATGTACTAATAATATAATATAA [XGTACX_site1326]	7.68 ± 0.34
AGTTTATATTATTAAAGTACATATATATATTCTTAA [XGTACX_site3164]	7.79 ± 0.4
AGTCGAATGATGTACACACATACAAAACATTTATGC [CACACA_site4022]	7.93 ± 0.47
ATATATATATATATATGGTAAAGTAAAAGGAAATAC [XGTACX_negctrl_site45]	9.52 ± 0.59
TACTAACTTTTTAAAAGTACAGAACCATAACCATAA [XGTACX_site7182]	8.06 ± 0.48
GAATAATCTAGAAACACACAAACACGACAAAAGAAA [CACACA_site4135]	8.06 ± 0.59
AATATCAATATTATATGTACTTATAATTTCAATGTA [XGTACX_site2423]	7.66 ± 0.4
TAAATTTATTAATCAAGTACAAAATAAATTTTTATA [XGTACX_site2745]	7.3 ± 0.29
TATATATAGAAACACACACACACATATATATATATA [CACACA_site4116]	9.37 ± 0.39
